Experimental data published in PubChem BioAssay AID894 (National Center for Advancing Translational Sciences (NCATS), 2007).
The whole screen tested about 150,000 compounds, of which about 6,500 (4.3%) were called active. Inconclusive results, whose numbers are uncertain, are shown with a selection of clear calls. The call rests on the fitted dose curve; in most records, active means well fitted inhibition curve with a large enough effect (not every such curve was filed as active); inconclusive means small, poorly fitted or top-dose-only effect, or another doubt; inactive means no such curve, though single readings can be large or run the other way. Potencies beside an inconclusive call are fits to weak or partial responses and may not hold up. Where a structure was tested more than once in an assay, its records may differ in their call.

Target: 15-hydroxyprostaglandin dehydrogenase [NAD(+)] (Homo sapiens) (UniProt P15428)
Experiment: qHTS Assay for Inhibitors of HPGD (15-Hydroxyprostaglandin Dehydrogenase)
Conditions: purified HPGD, NADH fluorescence kinetic, PGE2 substrate; activity change, negative = inhibition: stronger effect = lower value
Outline: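 NADH formation kinetics: reaction with 30 uM PGE2 and 1 mM NAD+ (final), 20 nM enzyme, Tris-HCl pH 8 with Tween 20, after 15 min compound preincubation at room temperature. Fluorescence change, last versus first of five reads.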
On the % scale 0 is the no-effect control and ±100 the full control effect; potency means the concentration at half of the fitted maximal effect; tags describe the fitted curve by direction and shape.

Chain of UniProt P15428 (P15428 whole entry, looked up): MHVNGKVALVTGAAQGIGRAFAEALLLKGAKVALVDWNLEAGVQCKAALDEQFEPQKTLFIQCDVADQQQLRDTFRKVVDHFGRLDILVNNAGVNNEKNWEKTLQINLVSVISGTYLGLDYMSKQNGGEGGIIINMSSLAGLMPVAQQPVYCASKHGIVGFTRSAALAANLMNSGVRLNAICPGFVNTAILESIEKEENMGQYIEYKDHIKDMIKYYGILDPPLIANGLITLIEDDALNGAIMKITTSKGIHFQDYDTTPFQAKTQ

Potency, active:
CCOC(=O)c1cc(C#N)c(SCC(=O)c2cc(C#N)c(SC)nc2C)[nH]c1=O 1.41 µM, CCOC(=S)N/C(=N\S(=O)(=O)c1ccc(C)cc1)c1ccccc1 25.1 µM, Cc1cc(C)c2nc(N3CCC(C(=O)N4CCCC4)CC3)sc2c1 12.6 µM, O=C(NCc1ccccc1)c1ccc(-c2ccccc2C(F)(F)F)o1 31.6 µM, CCOC(=O)C1CCCN(CC(O)COc2cccc(C)c2)C1 (stereo unspecified) 25.1 µM, O=C(O)Cn1cc(C(=S)N2CCOCC2)c2ccccc21 17.8 µM, CCOC(=O)c1ccc(N2C(=O)C3C(C2=O)C(C(=O)c2ccc(Cl)cc2)N2CCCC32)cc1 (stereo unspecified) 2.24 µM

Potency, inconclusive:
CCCN1Cc2cccc(C(=O)Nc3ccc(S(=O)(=O)N4CCCCCC4)cc3)c2C1=O 22.4 µM [inhibitor, partial curve], N#C/C(=C/c1cn(-c2ccccc2)nc1-c1cccc(OCc2ccc(F)cc2)c1)C(=O)NCCCn1ccnc1 39.8 µM [inhibitor, partial curve], COc1ccc2oc(=O)c(C(=O)NCc3ccccn3)cc2c1 28.2 µM [inhibitor, partial curve], COc1ccccc1-n1nc(C(=O)NCc2ccco2)c2ccccc2c1=O 22.4 µM [inhibitor, single point], O=C(Nc1ccc2c(c1)OCO2)N1CCN(c2ncc(C(F)(F)F)cc2Cl)CC1 44.7 µM [inhibitor, single point], Nc1cc(C(=O)OCC(=O)NCc2ccc(F)cc2)ccc1Cl 20 µM [inhibitor, partial curve], Cc1cccn2c(=O)c3cc(C(N)=S)c(=N)n(CCCOC(C)C)c3nc12 25.1 µM [inhibitor, partial curve], COC(=O)c1[nH]c2ccc(Cl)cc2c1NC(=O)Oc1ccccc1 14.1 µM [inhibitor, partial curve], Cc1cc(C)c2c(n1)sc1c(O)cc(=O)[nH]c12 31.6 µM [inhibitor, partial curve], COc1ccc(C)cc1NC(=O)CN1C(=O)c2cccc3cccc1c23 28.2 µM [inhibitor, partial curve], Cn1c(NC(=O)c2cccc(Cn3cc(Cl)cn3)c2)nc2ccccc21 25.1 µM [inhibitor, partial curve], Cc1cc(N)n2ncc(-c3cccc(Br)c3)c2n1 12.6 µM [inhibitor, partial curve], Cc1onc(-c2ccccc2)c1C(=O)Nc1ccc2c(C)cc(=O)oc2c1 31.6 µM [inhibitor, partial curve], COc1cc(/C=N/n2nnnc2N)ccc1O 25.1 µM [inhibitor, single point], CCOC(=O)c1ccc2[nH]c(C)cc(=O)c2c1 28.2 µM [inhibitor, partial curve], Cc1nc2ccc(-c3nc4ccccc4o3)cc2[nH]1 10 µM [inhibitor, partial curve], O=c1c2ccccc2oc2nc(-c3ccco3)n(Cc3ccccc3)c(=O)c12 17.8 µM [inhibitor, partial curve], CSc1ccc(-c2nc(CSCC(=O)N3CCOCC3)c(C)o2)cc1 28.2 µM [inhibitor, partial curve], CCOC(=O)N1CCC(c2cc(=O)n3[nH]ccc3n2)CC1 31.6 µM [inhibitor, partial curve], O=C(Nc1cccc(C(F)(F)F)c1)c1ccc2nc(N3C(=O)CCC3=O)sc2c1 28.2 µM [inhibitor, single point], COc1ccnc(N2CCN(c3ccc(Cl)cc3)CC2)c1C#N 25.1 µM [inhibitor, partial curve], COc1ccc(NC(=O)c2cc(C(C)C)on2)c(OC)c1 31.6 µM [inhibitor, single point], Cc1ccc2ccccc2[n+]1CCCS(=O)(=O)[O-] 22.4 µM [inhibitor, single point], COC(=O)C1=C(Nc2ccc(C)cc2)C=C(C)C(C(=O)OC)C1c1ccc(OC)cc1 (stereo unspecified) 17.8 µM [inhibitor, partial curve]

Activity change, negative = inhibition, inactive:
Cc1nc(SCc2c(F)cccc2Cl)c2c(=O)n(C)c(=O)n(C)c2n1 -14.4%, O=C(Nc1ccc(F)cc1)C(c1ccccc1)N1CCN(S(=O)(=O)c2ccccc2)CC1 (stereo unspecified) -9.3%, O=C(COC(=O)c1ccccn1)Nc1ccccc1Cl -2.06%, O=C(Nc1ccccc1)Nc1nnc(SCc2ccc(Cl)cc2)s1 0.613%, O=C(COc1ccc(F)cc1Br)NCc1ccccn1 -22.5%, Cc1cc(NC(=O)CSc2nc(-c3ccccc3)c(C#N)c(=O)[nH]2)no1 -20.4%, O=C(Cc1ccccc1)NC1CCN(S(=O)(=O)c2cccc(F)c2)CC1 -4.66%, CCOc1ccc(N2C(=O)/C(=C/c3cc(OC)c(OC)c(OC)c3)N(CC(=O)OC)C2=S)cc1 -29.6%, CCC1(CC)C(=O)N(C)C(=O)NC1=NCc1ccccc1 -0.837%, CCc1ccc(N/C(SC)=C(/C#N)C(N)=O)cc1 -14.4%, CCC(=O)Nc1ccc(C(=O)CSc2nnc(-c3ccc(O)cc3)n2CC2CCCO2)cc1 (stereo unspecified) -7.03%, Cc1ccc([C@@H](O)c2cnc(C)n2Cc2ccccc2)cc1 -6.49%, CCC(=O)NC(=S)Nc1ccc(-c2nc3ccccc3s2)cc1 -2.41%, NC(=O)CNC(=O)[C@@H]1CC2(CC(c3cccc([N+](=O)[O-])c3)=NO2)CN1C(=O)c1ccccc1 (stereo partly specified) -11.4%, COc1ccc(NC(=S)N(CCCN2CCN(C)CC2)Cc2cccs2)cc1 -2.04%
